# The other results are listed elsewhere or left out.
# Tested on: HepG2
# Test: cytotoxicity call (relative viability < 0.9)
# Conditions: 10 µM
row,SMILES,cytotoxicity call
1,O=C(CNc1ccc2c(c1)oc1ccccc12)c1ccc(F)cc1,inactive
2,C[C@H]1CN([C@@H](C)CO)C(=O)Cc2cc(NC(=O)C3CC3)ccc2O[C@@H]1CN(C)C(=O)Nc1ccccc1,inactive
3,C[C@@H]1CCCCO[C@@H](CN(C)C(=O)Nc2ccccc2)[C@H](C)CN([C@H](C)CO)C(=O)c2cc(NC(=O)NC3CCCCC3)ccc2O1,inactive
4,C[C@@H]1CN([C@@H](C)CO)C(=O)Cc2cc(NS(=O)(=O)c3cn(C)cn3)ccc2O[C@@H]1CN(C)Cc1ccncc1,inactive
5,OCCN(CCO)c1nc2ccccc2[nH]1,inactive
6,CCCNC(=O)[C@@]1(Sc2ccc(C)cc2)CC(=O)N(Cc2ccccc2C(F)(F)F)[C@@H]1c1ccc(CO)cc1,inactive

# Tested on: S. aureus RN4220
# Test: growth inhibition call (relative growth <= 0.2)
# Conditions: 50 µM
row,SMILES,growth inhibition call
1,COC(=O)C(=C1OC(=O)C(c2ccccc2)=C1O)c1ccccc1,inactive
2,CC(C)NC(=O)N(C)C[C@@H]1Oc2ccc(NC(=O)Cc3ccccc3)cc2CC(=O)N([C@H](C)CO)C[C@H]1C,inactive
3,Cc1noc(C)c1S(=O)(=O)N(C)C[C@H]1Oc2c(NC(=O)C3CCOCC3)cccc2C(=O)N([C@H](C)CO)C[C@H]1C,inactive
4,O.OCC1OC(OC2C(CO)OC(O)C(O)C2O)C(O)C(O)C1O (stereo unspecified),inactive
5,COc1ccc(S(=O)(=O)N[C@H]2C=C[C@@H](CC(=O)N3CCN(c4ccccc4)CC3)O[C@H]2CO)cc1,inactive
6,COc1ccc(S(=O)(=O)N(C)C[C@@H]2Oc3cc(C#CC4CCCC4)ccc3S(=O)(=O)N([C@H](C)CO)C[C@@H]2C)cc1,inactive
7,COc1ccc(S(=O)(=O)Nc2ccc3c(c2)C(=O)N([C@@H](C)CO)C[C@@H](C)[C@@H](CN(C)C(=O)NC(C)C)O3)cc1,inactive
8,C=C1C2CCC3(C)C(c4ccoc4)OC(=O)CC13OC1CC(=O)C(C)(C)C(C(O)C(=O)OC)C12C (stereo unspecified),inactive
9,C[C@@H]1CN([C@H](C)CO)C(=O)c2cccc(NS(=O)(=O)c3ccccc3)c2O[C@H]1CN(C)S(=O)(=O)c1cccs1,inactive
10,COCC(=O)N(C)C[C@@H]1Oc2cc(-c3ccc(C#N)cc3)ccc2S(=O)(=O)N([C@@H](C)CO)C[C@H]1C,inactive
11,CC(=N)NCCCC[C@H](N)C(=O)O,inactive
12,C[C@H](CO)N1C[C@H](C)[C@@H](CN(C)S(=O)(=O)c2ccc(F)cc2)Oc2ccc(NC(=O)Cn3cnnn3)cc2CC1=O,inactive
13,COc1ccc(NC(=O)N(C)C[C@H]2OCCCC[C@H](C)Oc3ccc(NS(=O)(=O)c4ccc(F)cc4)cc3C(=O)N([C@@H](C)CO)C[C@H]2C)cc1,inactive
14,C[C@H](CO)N1C[C@H](C)[C@@H](CN(C)C(=O)CCCN(C)C)OCCCC[C@H](C)Oc2ccc(NC(=O)Nc3ccc(C(F)(F)F)cc3)cc2C1=O,inactive
15,Cc1noc(C)c1S(=O)(=O)Nc1ccc2c(c1)C(=O)N([C@@H](C)CO)C[C@H](C)[C@@H](CN(C)C(=O)Nc1cccc3ccccc13)OCCCC[C@H](C)O2,inactive
16,COc1ccc2c3c([nH]c2c1)[C@@H](CO)N(Cc1ccc(cc1)Cl)C[C@]13CCN(CCc2ccccc2)CC1,active
17,CN(C)C(=O)C[C@@H]1CC[C@@H]2[C@H](COC[C@@H](O)CN2S(=O)(=O)c2ccccc2)O1,inactive
18,C[C@H]1CCCCO[C@H](CN(C)C(=O)Nc2ccc(F)cc2)[C@@H](C)CN([C@@H](C)CO)C(=O)c2cc(NC(=O)Nc3ccccc3)ccc2O1,inactive
19,C[C@@H]1CN([C@@H](C)CO)C(=O)c2cc(NC(=O)Nc3ccc(C(F)(F)F)cc3)ccc2O[C@H]1CN(C)Cc1ccccc1,inactive
20,COc1cccc(S(=O)(=O)N(C)C[C@@H]2Oc3cc(C4=CCCC4)ccc3S(=O)(=O)N([C@H](C)CO)C[C@H]2C)c1,inactive
21,C[C@@H]1CCCCO[C@H](CN(C)C(=O)Cc2ccccc2)[C@H](C)CN([C@@H](C)CO)C(=O)c2cc(NC(=O)c3ccccc3)ccc2O1,inactive
22,Cc1ccc(S(=O)(=O)Nc2ccc3c(c2)CC(=O)N([C@H](C)CO)C[C@H](C)[C@@H](CN(C)C(=O)Nc2ccc(C(F)(F)F)cc2)O3)cc1,inactive
23,C[C@@H](NC(=O)C[C@@H]1C=C[C@@H](NC(=O)CN2CCOCC2)[C@@H](CO)O1)c1ccccc1,inactive
24,Cc1noc(C)c1NC(=O)N(C)C[C@@H]1Oc2ccc(NC(=O)CCN3CCOCC3)cc2C(=O)N([C@H](C)CO)C[C@H]1C,inactive
25,C[C@H](CO)N1C[C@H](C)[C@H](CN(C)C(=O)C2CCCCC2)OCCCC[C@H](C)Oc2ccc(NS(=O)(=O)c3cccs3)cc2C1=O,inactive
